Results from the supplement of paper PMC8728848.
Some of the results follow.

How the values were obtained:
Test in all cases: glycan array binding signal (z-score within array); higher = stronger binding
Settings in all cases: glycan notation: IUPAC condensed, linker removed
[1] = target: Neu5Ac(a2-3)Gal(b1-3)GlcNAc(b1-6)GalNAc
In short: (§1)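 Arrays were curated from the Consortium for Functional Glycomics database, 3228 in total, and kept only where the protein sequence was available. Binding is expressed as a within-array Z-score. This score was averaged across arrays of the same protein sequence at different concentrations or buffers and across linkers, and negative values can be read as non-binding.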

[2] = target: Neu5Ac(a2-3)Gal(b1-3)GlcNAc6S
In short: as §1

[3] = target: Neu5Ac(a2-3)Gal(b1-3)[Fuc(a1-4)]GlcNAc
In short: as §1

[4] = target: Neu5Ac(a2-3)Gal(b1-3)[Fuc(a1-4)]GlcNAc(b1-3)Gal(b1-3)[Fuc(a1-4)]GlcNAc
In short: as §1

[5] = target: Neu5Ac(a2-3)Gal(b1-3)[Fuc(a1-4)]GlcNAc(b1-3)Gal(b1-4)[Fuc(a1-3)]GlcNAc
In short: as §1

[6] = target: Neu5Ac(a2-3)Gal(b1-3)[GlcNAc(b1-6)]GalNAc
In short: as §1

[7] = target: Neu5Ac(a2-3)Gal(b1-3)[Neu5Ac(a2-6)]GalNAc
In short: as §1

[8] = target: Neu5Ac(a2-3)Gal(b1-3)[Neu5Ac(a2-6)]GlcNAc(b1-3)[Fuc(a1-3)[Gal(b1-4)]GlcNAc(b1-6)]Gal(b1-4)Glc
In short: as §1

[9] = target: Neu5Ac(a2-3)Gal(b1-3)]Neu5Ac(a2-3)Gal(b1-4)]GlcNAc
In short: as §1

Neu5Ac(a2-3)Gal(b1-4)Glc = target: Neu5Ac(a2-3)Gal(b1-4)Glc
In short: as §1

[10] = target: Neu5Ac(a2-3)Gal(b1-4)GlcNAc
In short: as §1

[11] = target: Neu5Ac(a2-3)Gal(b1-4)GlcNAc(b1-2)Man
In short: as §1

[12] = target: Neu5Ac(a2-3)Gal(b1-4)GlcNAc(b1-2)Man(a1-3)[GlcNAc(b1-4)][Neu5Ac(a2-3)Gal(b1-4)GlcNAc(b1-2)Man(a1-6)]Man(b1-4)GlcNAc(b1-4)GlcNAc
In short: as §1

[13] = target: Neu5Ac(a2-3)Gal(b1-4)GlcNAc(b1-2)Man(a1-3)[Neu5Ac(a2-3)Gal(b1-4)GlcNAc(b1-2)Man(a1-6)]Man(b1-4)GlcNAc(b1-4)GlcNAc
In short: as §1

[14] = target: Neu5Ac(a2-3)Gal(b1-4)GlcNAc(b1-2)Man(a1-3)[Neu5Ac(a2-3)Gal(b1-4)GlcNAc(b1-2)Man(a1-6)]Man(b1-4)GlcNAc(b1-4)[Fuc(a1-6)]GlcNAc
In short: as §1

[15] = target: Neu5Ac(a2-3)Gal(b1-4)GlcNAc(b1-2)Man(a1-3)[Neu5Ac(a2-6)Gal(b1-4)GlcNAc(b1-2)Man(a1-6)]Man(b1-4)GlcNAc(b1-4)GlcNAc
In short: as §1

[16] = target: Neu5Ac(a2-3)Gal(b1-4)GlcNAc(b1-2)[Neu5Ac(a2-3)Gal(b1-4)GlcNAc(b1-4)]Man(a1-3)[GlcNAc(b1-4)][Neu5Ac(a2-3)Gal(b1-4)GlcNAc(b1-2)[Neu5Ac(a2-3)Gal(b1-4)GlcNAc(b1-6)]Man(a1-6)]Man(b1-4)GlcNAc(b1-4)GlcNAc
In short: as §1

[17] = target: Neu5Ac(a2-3)Gal(b1-4)GlcNAc(b1-2)[Neu5Ac(a2-3)Gal(b1-4)GlcNAc(b1-4)]Man(a1-3)[GlcNAc(b1-4)][Neu5Ac(a2-3)Gal(b1-4)GlcNAc(b1-4)Man(a1-6)]Man(b1-4)GlcNAc(b1-4)GlcNAc
In short: as §1

[18] = target: Neu5Ac(a2-3)Gal(b1-4)GlcNAc(b1-2)[Neu5Ac(a2-3)Gal(b1-4)GlcNAc(b1-6)]Man(a1-6)[Neu5Ac(a2-3)Gal(b1-4)GlcNAc(b1-2)Man(a1-3)][GlcNAc(b1-4)]Man(b1-4)GlcNAc(b1-4)GlcNAc
In short: as §1

[19] = target: Neu5Ac(a2-3)Gal(b1-4)GlcNAc(b1-3)Gal
In short: as §1

[20] = target: Neu5Ac(a2-3)Gal(b1-4)GlcNAc(b1-3)Gal(b1-3)GlcNAc
In short: as §1

[21] = target: Neu5Ac(a2-3)Gal(b1-4)GlcNAc(b1-3)Gal(b1-4)GlcNAc
In short: as §1

[22] = target: Neu5Ac(a2-3)Gal(b1-4)GlcNAc(b1-3)Gal(b1-4)GlcNAc(b1-2)Man(a1-3)[Neu5Ac(a2-3)Gal(b1-4)GlcNAc(b1-3)Gal(b1-4)GlcNAc(b1-2)Man(a1-6)]Man(b1-4)GlcNAc(b1-4)GlcNAc
In short: as §1

[23] = target: Neu5Ac(a2-3)Gal(b1-4)GlcNAc(b1-3)Gal(b1-4)GlcNAc(b1-3)Gal(b1-4)GlcNAc
In short: as §1

[24] = target: Neu5Ac(a2-3)Gal(b1-4)GlcNAc(b1-3)Gal(b1-4)GlcNAc(b1-3)Gal(b1-4)GlcNAc(b1-2)Man(a1-3)[Neu5Ac(a2-3)Gal(b1-4)GlcNAc(b1-3)Gal(b1-4)GlcNAc(b1-3)Gal(b1-4)GlcNAc(b1-2)Man(a1-6)]GalNAc
In short: as §1

[25] = target: Neu5Ac(a2-3)Gal(b1-4)GlcNAc(b1-3)Gal(b1-4)GlcNAc(b1-3)GalNAc
In short: as §1

[26] = target: Neu5Ac(a2-3)Gal(b1-4)GlcNAc(b1-3)Gal(b1-4)GlcNAc(b1-3)[Neu5Ac(a2-3)Gal(b1-4)GlcNAc(b1-3)Gal(b1-4)GlcNAc(b1-6)]GalNAc
In short: as §1

[27] = target: Neu5Ac(a2-3)Gal(b1-4)GlcNAc(b1-3)Gal(b1-4)GlcNAc(b1-6)[Gal(b1-3)]GalNAc
In short: as §1

[28] = target: Neu5Ac(a2-3)Gal(b1-4)GlcNAc(b1-3)Gal(b1-4)[Fuc(a1-3)]GlcNAc
In short: as §1

[29] = target: Neu5Ac(a2-3)Gal(b1-4)GlcNAc(b1-3)GalNAc
In short: as §1

[30] = target: Neu5Ac(a2-3)Gal(b1-4)GlcNAc(b1-3)[Neu5Ac(a2-3)Gal(b1-4)GlcNAc(b1-6)]GalNAc
In short: as §1

[31] = target: Neu5Ac(a2-3)Gal(b1-4)GlcNAc(b1-6)GalNAc
In short: as §1

[32] = target: Neu5Ac(a2-3)Gal(b1-4)GlcNAc(b1-6)[Gal(b1-3)]GalNAc
In short: as §1

[33] = target: Neu5Ac(a2-3)Gal(b1-4)GlcNAc(b1-6)[Neu5Ac(a2-3)Gal(b1-3)]GalNAc
In short: as §1

[34] = target: Neu5Ac(a2-3)Gal(b1-4)GlcNAc6S
In short: as §1

[35] = target: Neu5Ac(a2-3)Gal(b1-4)[Fuc(a1-3)]GlcNAc
In short: as §1

[36] = target: Neu5Ac(a2-3)Gal(b1-4)[Fuc(a1-3)]GlcNAc(b1-2)Man
In short: as §1

[37] = target: Neu5Ac(a2-3)Gal(b1-4)[Fuc(a1-3)]GlcNAc(b1-3)Gal
In short: as §1

[38] = target: Neu5Ac(a2-3)Gal(b1-4)[Fuc(a1-3)]GlcNAc(b1-3)Gal(b1-4)GlcNAc
In short: as §1

[39] = target: Neu5Ac(a2-3)Gal(b1-4)[Fuc(a1-3)]GlcNAc(b1-3)Gal(b1-4)[Fuc(a1-3)]GlcNAc(b1-3)Gal(b1-4)[Fuc(a1-3)]GlcNAc
In short: as §1

[40] = target: Neu5Ac(a2-3)Gal(b1-4)[Fuc(a1-3)]GlcNAc(b1-3)GalNAc
In short: as §1

[41] = target: Neu5Ac(a2-3)Gal(b1-4)[Fuc(a1-3)]GlcNAc(b1-6)[Gal(b1-3)]GalNAc
In short: as §1

[42] = target: Neu5Ac(a2-3)Gal(b1-4)[Fuc(a1-3)]GlcNAc(b1-6)[Neu5Ac(a2-3)Gal(b1-3)]GalNAc
In short: as §1

[43] = target: Neu5Ac(a2-3)Gal(b1-4)[Fuc(a1-3)]GlcNAc6S
In short: as §1

[44] = target: Neu5Ac(a2-3)Gal6S(b1-4)GlcNAc
In short: as §1

B1: LgFlo1 (Saccharomyces pastorianus), B3IUA8 (protein)
chain: SGSTQACLPVGSRKNGMNVNFYKYSLQDSTTYSDPQYMAYKYSDTKKLGSVSGQTHLSIYYGPNTAFWNTASWSSDLFGFYTTPTNVTVEMTGYFLPPQTGSYTFKFATVDDSAILSVGGSIAFECCAQEQPPITSTDFTINGIKPWDAATPTDIKGSTYMYAGYYYPIKIVYSNAKALARLPVSVVLPDGTEVNDDFEGYVYSFDDDLSQSNCTIPDPSKHTTS
glycan array binding signal (z-score) [1]: -0.374 | glycan array binding signal (z-score) [2]: -0.305 | glycan array binding signal (z-score) [3]: -0.245 | glycan array binding signal (z-score) [4]: -0.023 | glycan array binding signal (z-score) [5]: -0.176 | glycan array binding signal (z-score) [6]: -0.396 | glycan array binding signal (z-score) [7]: -0.194 | glycan array binding signal (z-score) [8]: -0.335 | glycan array binding signal (z-score) [9]: -0.357 | glycan array binding signal (z-score) (Neu5Ac(a2-3)Gal(b1-4)Glc): 1.97 | glycan array binding signal (z-score) [10]: -0.17 | glycan array binding signal (z-score) [11]: 0.168 | glycan array binding signal (z-score) [12]: -0.11 | glycan array binding signal (z-score) [13]: 0.515 | glycan array binding signal (z-score) [14]: -0.133 | glycan array binding signal (z-score) [15]: -0.162 | glycan array binding signal (z-score) [16]: -0.041 | glycan array binding signal (z-score) [17]: -0.142 | glycan array binding signal (z-score) [18]: -0.271 | glycan array binding signal (z-score) [19]: -0.169 | glycan array binding signal (z-score) [20]: -0.316 | glycan array binding signal (z-score) [21]: -0.092 | glycan array binding signal (z-score) [22]: -0.028 | glycan array binding signal (z-score) [23]: -0.17 | glycan array binding signal (z-score) [24]: -0.21 | glycan array binding signal (z-score) [25]: -0.237 | glycan array binding signal (z-score) [26]: -0.197 | glycan array binding signal (z-score) [27]: -0.226 | glycan array binding signal (z-score) [28]: -0.509 | glycan array binding signal (z-score) [29]: -0.114 | glycan array binding signal (z-score) [30]: -0.262 | glycan array binding signal (z-score) [31]: -0.054 | glycan array binding signal (z-score) [32]: -0.09 | glycan array binding signal (z-score) [33]: -0.221 | glycan array binding signal (z-score) [34]: -0.326 | glycan array binding signal (z-score) [35]: -0.099 | glycan array binding signal (z-score) [36]: -0.151 | glycan array binding signal (z-score) [37]: -0.076 | glycan array binding signal (z-score) [38]: -0.298 | glycan array binding signal (z-score) [39]: -0.167 | glycan array binding signal (z-score) [40]: 1.51 | glycan array binding signal (z-score) [41]: -0.279 | glycan array binding signal (z-score) [42]: -0.12 | glycan array binding signal (z-score) [43]: -0.328 | glycan array binding signal (z-score) [44]: -0.229
